Reference: PubChem BioAssay AID1030 (National Center for Advancing Translational Sciences (NCATS), 2008)
Screen size: about 220,000 compounds; about 16,000 (7.3%) were called active. The inconclusive results got no clear call from the source; some entries with a clear call stand among them for comparison. Calls come from the whole dose curve; as a rule, active = well fitted inhibition curve with a large enough effect (not every such curve was filed as active); inconclusive = small, poorly fitted or top-dose-only effect, or another doubt; inactive = no such curve, though single readings can be large or run the other way. No potency is given beside an inconclusive call; the fits are too rough.
Potency is the fitted concentration of half-maximal effect; tags give direction and shape of the fitted curve.

The compounds below were run against Aldehyde dehydrogenase 1A1 (Homo sapiens) (UniProt P00352) (assay: qHTS Assay for Inhibitors of Aldehyde Dehydrogenase 1 (ALDH1A1)). Details: Purified ALDH1A1, NADH fluorescence, propionaldehyde substrate; series mostly up to 75.3 µM.
Chain of UniProt P00352 (P00352 whole entry, looked up): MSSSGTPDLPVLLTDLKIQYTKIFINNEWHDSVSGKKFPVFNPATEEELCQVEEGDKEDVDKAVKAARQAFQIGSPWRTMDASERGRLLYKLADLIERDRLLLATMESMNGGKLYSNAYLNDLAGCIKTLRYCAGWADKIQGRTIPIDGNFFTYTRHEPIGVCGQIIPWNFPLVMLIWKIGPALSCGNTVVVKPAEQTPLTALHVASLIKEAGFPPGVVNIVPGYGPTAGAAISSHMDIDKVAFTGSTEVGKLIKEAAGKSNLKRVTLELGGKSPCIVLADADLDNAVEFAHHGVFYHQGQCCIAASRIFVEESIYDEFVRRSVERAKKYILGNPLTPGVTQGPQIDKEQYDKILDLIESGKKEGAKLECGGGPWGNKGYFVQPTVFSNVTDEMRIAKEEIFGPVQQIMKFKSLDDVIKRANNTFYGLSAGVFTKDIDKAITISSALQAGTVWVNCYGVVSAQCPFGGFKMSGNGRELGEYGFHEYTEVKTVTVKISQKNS
In the case of CC1(OC(=O)c2ccc(Cl)nc2)C(=O)C=C2C=C(c3ccc(C#N)cc3)OC=C2C1=O (stereo unspecified), the Potency is reported as inconclusive [inhibitor, partial curve]. In the case of S=c1nc(-c2ccccc2Br)[nH][nH]1, the Potency is reported as active: 10 µM. CC1(C)CC2(CC(c3ccccc3F)c3ccc(O)c(O)c3O2)NC(=S)N1 (stereo unspecified) was tested, and the Potency was inconclusive [inhibitor, single point]. c1ccc2c(Nc3ccc4c(c3)OCCO4)c3c(nc2c1)CCCC3 was tested, and the Potency was “inactive”. In the case of CN1CCc2c(sc3nc(SCC(=O)N4CCOCC4)nc(N)c23)C1, the Potency is reported as inconclusive [inhibitor, single point]. In the case of O=C(O)/C=C/C(=O)Nc1ccccc1-c1ccccc1, the Potency is reported as inconclusive [inhibitor, single point]. For O=C(NCc1ccccc1)c1csc2c1CCCCC2, the Potency was active: 17.8 µM. With CCC(C)NC(=O)CN1C(=O)NC2(CCc3ccccc3C2)C1=O (stereo unspecified) the Potency was “inactive”. Oc1ccc(/C=N/Nc2nc(N3CCCC3)nc(N3CCCC3)n2)cc1O was tested, and the Potency was active: 12.6 µM. CC(=O)c1sc2nc(SCC(=O)N3CCCCC3)[nH]c(=O)c2c1C was tested, and the Potency was inconclusive [inhibitor, partial curve]. O=[N+]([O-])c1cccc(-c2ccc(/C=N/Nc3nc(N4CCCCC4)nc(N4CCCCC4)n3)o2)c1 was tested, and the Potency was “inactive”. For CSCCC(NC(=O)C1CCC(C)CC1)C(=O)NCCN1CCOCC1 (stereo unspecified), the Potency was inconclusive [inhibitor, single point]. O=C(O)c1c2c(nc3ccc(S(=O)(=O)N4CCC(C(=O)NC5CCCC5)CC4)cc13)CCCCC2 was tested, and the Potency was inconclusive [inhibitor, single point]. With Cc1nc(NCCN2CCOCC2)c2nnn(Cc3ccccc3Cl)c2n1 the Potency was active: 15.8 µM. In the case of CCOC(=O)C1=C(c2ccccc2)NC(=S)NC1c1cccc([N+](=O)[O-])c1 (stereo unspecified), the Potency is reported as active: 0.891 µM. O=C(C1CCC(CNc2nc(=S)[nH]c3ccccc23)CC1)N1CCN(c2ccccn2)CC1 (stereo unspecified) was tested, and the Potency was inconclusive [inhibitor, single point]. O=C(O)C1NCCc2ccccc21 (stereo unspecified) was tested, and the Potency was “inactive”. With Cc1cc2c(=O)n(C)c(SCC(=O)c3cc4ccccc4o3)nc2s1 the Potency was inconclusive [inhibitor, partial curve]. In the case of Cc1ccc(-c2noc(CSc3nnc(Cc4cccs4)n3-c3ccccc3)n2)cc1, the Potency is reported as inconclusive [inhibitor, single point]. For CCOc1ccc2[nH]c(=O)c(CN(Cc3cccs3)C(CC)c3nnnn3C(C)(C)CC)cc2c1 (stereo unspecified), the Potency was inconclusive [inhibitor, single point]. For COCCn1nnnc1C(c1cc2ccc(OC)cc2[nH]c1=O)N1CCN(C2CCCCC2)CC1 (stereo unspecified), the Potency was inconclusive [inhibitor, partial curve]. With O=C(Nc1nccs1)c1cccc(S(=O)(=O)N2CCOCC2)c1 the Potency was inconclusive [inhibitor, single point]. In the case of CN(C)c1ncc2ncc(=O)n(Cc3ccc(F)cc3)c2n1, the Potency is reported as inconclusive [inhibitor, single point]. CC(C)NS(=O)(=O)c1ccc(NC(=O)NC2CCCCC2)cc1 was tested, and the Potency was “inactive”. With CCCOc1ccc(N2CC(C(=O)NC3=NCCS3)CC2=O)cc1 (stereo unspecified) the Potency was “inactive”. For O=C1C2=C(Nc3ccccc3SC2c2ccco2)c2ccccc21 (stereo unspecified), the Potency was active: 6.31 µM. Cc1ccc2[nH]c(SCC(=O)N3CCOCC3)nc2c1C was tested, and the Potency was “inactive”. In the case of O=C1C(=C(O)c2ccccc2)C(=O)c2ccccc21, the Potency is reported as active: 3.98 µM. C#CC[N+](C)(C)CCCCCCCC was tested, and the Potency was “inactive”. With Cc1ccc(Cl)cc1NC(=S)N/N=C/c1cccc2ccccc12 the Potency was inconclusive [inhibitor, single point]. COc1ccc(NC(=S)Nc2cccc(Cl)c2Cl)cc1OC was tested, and the Potency was inconclusive [inhibitor, single point]. With Nc1ccc2nc(CCc3ccccc3)[nH]c2c1 the Potency was inconclusive [inhibitor, partial curve]. For Cc1cccc(C)c1NC(=S)N/N=C/c1c(Cl)cccc1Cl, the Potency was “inactive”. With CC(C)N(Cc1ccccc1)C(=O)COC(=O)c1cnccn1 the Potency was inconclusive [inhibitor, single point]. In the case of Cc1ccc(C(=O)[C@@H]2[C@H]3C4COC(O4)C(=O)[C@@H]3[C@H]3C=Cc4ccccc4N32)cc1 (stereo partly specified), the Potency is reported as inconclusive [inhibitor, single point]. In the case of N#Cc1sc2nc3c(c(-c4ccco4)c2c1N)CCCC3, the Potency is reported as inconclusive [inhibitor, partial curve]. Cc1ccc(C=C2C(=O)c3ccccc3C2=O)s1 was tested, and the Potency was active: 0.501 µM. With O=C(CNC(=S)N(Cc1ccccc1F)C1CCCCC1)NCCCN1CCOCC1 the Potency was inconclusive [inhibitor, single point]. O=C(c1cc(-c2ccncc2)nc2ccccc12)N1CCN(S(=O)(=O)/C=C/c2ccccc2)CC1 was tested, and the Potency was inconclusive [inhibitor, single point]. C=CCNCCOCCOc1ccccc1-c1ccccc1 was tested, and the Potency was “inactive”. For CN(C)c1nc(N(C)C)nc(N(C#N)CCOc2ccccc2)n1, the Potency was inconclusive [inhibitor, partial curve]. In the case of COc1ccc(S(=O)(=O)N2CC(O)CC2C(=O)OCc2nc3sc(C)c(C)c3c(=O)[nH]2)cc1 (stereo unspecified), the Potency is reported as inconclusive [inhibitor, single point]. With CC(C)(C)NC(=O)CN(C(=O)Cn1nnc(-c2ccc(Cl)cc2)n1)C1CCN(Cc2ccccc2)CC1 the Potency was inconclusive [inhibitor, single point]. COc1ccc(-c2ccc(CCC(=O)O)n2CC(=O)Nc2cccc(OC)c2)cc1 was tested, and the Potency was inconclusive [inhibitor, single point]. With Cc1ccc(Nc2nc3c(s2)CCC3)c(C)c1 the Potency was inconclusive [inhibitor, single point]. COC(=O)c1c(NC(=O)c2nc3ccccc3s2)sc2c1CC(C)(C)NC2(C)C was tested, and the Potency was inconclusive [inhibitor, partial curve].
